# According to PubChem BioAssay AID1345082 (National Center for Advancing Translational Sciences (NCATS), 2018):
# The whole screen tested about 94,000 compounds, of which about 4,000 (4.3%) were called active. The shares of active, inactive and inconclusive entries below differ from those in the screen. Calls follow the shape of the dose curve; as a rule, active = well fitted inhibition curve with a large enough effect; inconclusive = small, poorly fitted or top-dose-only effect; inactive = no such curve, though single readings can be large or run the other way. Where the call is inconclusive, the potency comes from a doubtful curve fit.
# Assay: Cytotoxic Profiling in NIH 3T3 Cell Line of Diverse Libraries Using Quantitative High-Throughput Screening; also: nearly all actives have a fitted effect of over 55% in size
# Conditions: NIH 3T3 viability, CellTiter-Glo ATP luminescence, 48-72 h; activity change, negative = cytotoxicity: at 96.7 µM (top of the series) unless noted; series mostly up to 96.7 µM
# In short: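 Cytotoxicity is measured as loss of cellular ATP: NIH 3T3 cells (400/well) are exposed to compound for 48 or 72 hr at 37 °C, then CellTiter-Glo luminescence is imaged after 10 min at room temperature.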
# % is scaled to controls: 0 for no effect and ±100 for the full control effect; potency is read from the fitted curve at half-maximal effect; tags tell the direction and shape of the fitted curve.
Compound,"activity change, negative = cytotoxicity",outcome,Potency
COCCNC(=O)C1CCN(c2nc3ncccc3o2)CC1,inactive: 1.33% [at 138 µM],–,–
O=C(Cc1cccnc1)N1CCCC(CN2CCCC2)CC1 (stereo not given),–,inactive,–
CC(C)Cc1cn(C2CCN(CC(C)c3ccccc3)CC2)nn1 (stereo not given),–,–,"inconclusive: 56.2 µM [inhibitor, partial curve, poor fit]"
CC(C)c1nc2c(c(-c3ccc(O)cc3)n1)CCN(Cc1ccccc1)CC2,–,–,"inconclusive: 50.1 µM [inhibitor, partial curve, poor fit]"
O=C1[C@H]2CN(Cc3cccc(Br)c3)C[C@H]2C(=O)N1Cc1ccc2c(c1)OCO2,–,–,"inconclusive: 50.1 µM [inhibitor, partial curve, poor fit]"
C=CCCOC(=O)N1CCC(=O)N(CC)C[C@H]2COc3cc(OC)ccc3[C@H]21,–,–,"inconclusive: 70.8 µM [inhibitor, single point]"
O=C(NCC1CC1)c1cc(C2CC2)nc2onc(C3CCCN3)c12 (stereo not given),–,inactive,–
COc1ccc(-c2noc(CC3CCN(C(=O)C4CC4)CC3)n2)cc1,–,–,"inconclusive: 39.8 µM [inhibitor, partial curve, poor fit]"
O=C(NC1CC1)C1CCN(c2nc3ncccc3o2)CC1,–,–,"inconclusive: 35.5 µM [inhibitor, partial curve, poor fit]"
CN1CC(=O)N(C2CCCNCC2)Cc2c(NC3CCC3)ncnc21 (stereo not given),inactive: 3.01%,–,–
Cc1ccc(CN2CCC3(CCCO3)CCC2=O)c2ccccc12 (stereo not given),inactive: -19.9%,–,–
Cc1cnc(CCNS(=O)(=O)c2cn(C)cn2)n1C1CCC1,–,–,"inconclusive: 39.8 µM [inhibitor, partial curve]"
COCCCNC(=O)CC1=C2CCCCC2N(Cc2ccc(F)cc2)C1=O (stereo not given),inactive: -12%,–,–
O=C(N[C@H]1CO[C@H]2[C@@H]1OC[C@@H]2n1cc(COc2ccccc2)nn1)c1ccc(C(F)(F)F)cc1,inactive: -16.9%,–,–
O=C(c1ccc(Cl)cc1)N1CC2(CCN(C3CCCCC3)C2)Cc2ccccc21 (stereo not given),–,–,"inconclusive: 50.1 µM [inhibitor, partial curve, poor fit]"
O=C(NCCN1CCOCC1)C1CC(=O)N(c2n[nH]c3cc(Br)ccc23)C1 (stereo not given),–,–,"inconclusive: 31.6 µM [inhibitor, single point]"
CC(C)c1nc2c(c(-c3ccc(Cl)cc3)n1)CN(C(=O)c1cccc(Cl)c1)CC2,–,–,"inconclusive: 44.7 µM [inhibitor, partial curve, poor fit]"
CC1=C[C@@H](CNCc2ccc(C#N)cc2)[C@H](C(C)C)C[C@H]1Cc1nnc(C(C)(C)C)o1,–,–,"inconclusive: 56.2 µM [inhibitor, partial curve, poor fit]"
O[C@H]1[C@H](NCc2ccccc2)[C@H]2CO[C@H](O2)[C@@H]1N1CCC(Cc2ccccc2)CC1,–,–,"inconclusive: 56.2 µM [inhibitor, partial curve, poor fit]"
Cn1ccc2c(C(=O)NCc3cccnc3)nc(-c3cnn(Cc4ccccc4)c3)cc21,–,–,"inconclusive: 10 µM [inhibitor, full curve, poor fit]"

Compound,"activity change, negative = cytotoxicity",outcome,Potency
Cc1cccc(C(=O)N2CCC3(CC2)OCC(C(=O)NCC(C)C)N3C(=O)c2cccc(C)c2)c1 (stereo not given),–,–,"inconclusive: 31.6 µM [inhibitor, partial curve, poor fit]"
COCCCNC(=O)c1cnc2c(c1)N(C(=O)Cc1cn(C)c3ccccc13)CCC2,–,–,"inconclusive: 28.2 µM [inhibitor, full curve]"
O=C(N1CCC(c2n[nH]c(=O)n2Cc2ccc(F)cc2)CC1)C1(c2ccccc2)CC1,–,–,"inconclusive: 50.1 µM [inhibitor, partial curve, poor fit]"
O=C(NCc1ccc(F)cc1)c1cc(-c2ccc(Cl)cc2Cl)c2nncn2n1,–,–,active: 44.7 µM
COCCCNC(=O)c1c(OCC(C)C)cc(=O)n2c1CCCCC2,inactive: -19.2%,–,–
Cn1cc(CC(=O)N2CCCc3ncc(C(=O)NCC4CCCO4)cc32)c2ccccc21 (stereo not given),–,–,"inconclusive: 44.7 µM [inhibitor, partial curve, poor fit]"
Cn1nc(C2CCCN(C(=O)Cc3ccccc3)C2)n(Cc2ccccc2)c1=O (stereo not given),–,inactive,–
Cc1noc(C)c1[S+](=O)([O-])N1CCC(c2nn(-c3ccccn3)c(=O)[nH]2)CC1,inactive: -10.7%,–,–
O=C(CCc1nc2ccccc2[nH]1)N1CCCC(Cc2noc(-c3ccccc3)n2)C1 (stereo not given),–,–,"inconclusive: 35.5 µM [inhibitor, partial curve]"
COc1ccccc1C(=O)NCCNC(=O)c1cccc(-c2ccsc2)c1,–,–,"inconclusive: 50.1 µM [inhibitor, partial curve, poor fit]"
CC(=O)Nc1cccc(-c2n[nH]c3c2CC(=O)N(Cc2ccccc2)C3)c1,–,–,"inconclusive: 50.1 µM [inhibitor, partial curve, poor fit]"
O=C(CC1CCCN(c2cnn(CC3CC3)c(=O)c2)C1)NCc1cccs1 (stereo not given),–,–,"inconclusive: 44.7 µM [inhibitor, partial curve, poor fit]"
CCCCC1CN(c2ccc(Cl)cc2)C(=O)CN1C(=O)CNC(=O)OC (stereo not given),inactive: -38.7%,–,–
COc1ccc(CNCc2ccc(C)s2)cc1OCC(O)CN1CCCCC1 (stereo not given),–,–,"inconclusive: 79.4 µM [inhibitor, partial curve, poor fit]"
CN(C)c1ncc2c(n1)C(C)(C(=O)NCC1CC1)CCC2 (stereo not given),–,–,"inconclusive: 112 µM [inhibitor, partial curve, poor fit]"
O=C(NCCCc1ccccc1)c1cn2cc(-c3ccc(C(F)(F)F)cc3)sc2n1,–,–,"inconclusive: 39.8 µM [inhibitor, partial curve, poor fit]"
CCN1c2cc(C(=O)Nc3ccc(F)c(C)c3)ccc2C(=O)N2CCCCC21 (stereo not given),–,–,"inconclusive: 44.7 µM [inhibitor, partial curve, poor fit]"
Cn1cc(CN2CCCN(S(=O)(=O)c3ccccc3)CCC(=O)NCC2)c2ccccc21,–,–,"inconclusive: 50.1 µM [inhibitor, partial curve, poor fit]"
COc1ccccc1-c1nc(C(=O)NCc2cccs2)n2ccccc12,–,–,"inconclusive: 31.6 µM [inhibitor, full curve]"
CCC1Oc2ccc(NC(=O)Cc3ccc(F)cc3)cc2CN(Cc2ccc(Cl)cc2)C1=O (stereo not given),–,–,active: 10 µM
